Assay results as given in patent US20250179210A1, “ANTI-CEACAM5 ANTIBODIES AND CONJUGATES AND USES THEREOF” (Merck Patent GmbH, priority 2022, published 2025).

System: MKN45 cells
Test: Internalization assay using Cell Discoverer (pHrodo labeled antibodies)
Format: cell-based, human
Text: A relevant characteristic of an ADC is its internalization into a target-expressing cell and lysosomes, and thus internalization is a relevant property of antibodies to be used as part of ADCs. Antibody internalization rate into the late endosome and lysosome (low pH vesicles) can be monitored by directly labeling the antibodies with a pH-sensitive dye (pHrodo) which emits strong fluorescence at a pH lower than 6.0 upon excitation. This fluorescence can be imaged in the Cell-Discoverer7 (Zeiss) and internalization rate can be calculated.
To analyze the internalization rates of several antibodies, MKN45 cells were seeded in a 96 well, dark, flat clear bottom plate (Cellvis) at 25,000 cells/well. Cells were cultivated over night with 100 μl/well of RMPI-1640+10% FBS (Thermo). Cell media was removed, and cells were stained with 100 μl of 10 μg/ml Hoechst dye diluted in PBS×1 for 15 min at room temperature (RT) in the dark. Cells were then washed twice with PBS×1.
Plate was incubated in the Cell Discoverer at 37° C., 5% CO2, for 20 hours, and images were acquired every 20 minutes, as further described below.
Internalization of pHrodo labeled antibodies into the late endosomes and lysosomes of cells was imaged by Cell-Discoverer7 (Zeiss) using fluorescence at excitation of 567 nm and emission detector of 592/25 nm. Cell nuclei were labeled with Hoechst and imaged at excitation of 385 nm and emission detector of 425/30 nm.
Fluorescence of each well was recorded every 20 min for 20 h. Analysis of Sum Fluorescence Intensity per cell (SFI) was calculated by the Zen Software (ZEN3.1) and Excel analysis of linear regression.

B1: mAb1: anti-CEACAM5 antibody; two heavy chains SEQ ID NO: 13 and two light chains SEQ ID NO: 14 (antibody)
heavy: EVQLQESGPGLVKPSQTLSLTCTVSDGSVSRGGYYLTWIRQHPGKGLEWIGYIYYSGSTYFNPSLRSRVTMSVDTSKNQFSLKLSSVTAADTAVYYCARGIAVAPFDYWGQGTLVTVSSASTKGPSVFPLAPSSKSTSGGTAALGCLVKDYFPEPVTVSWNSGALTSGVHTFPAVLQSSGLYSLSSVVTVPSSSLGTQTYICNVNHKPSNTKVDKRVEPKSCDKTHTCPPCPAPPVAGPSVFLFPPKPKDTLMISRTPEVTCVVVDVSHEDPEVKFNWYVDGVEVHNAKTKPREEQYNSTYRVVSVLTVLHQDWLNGKEYKCKVSNKALPSSIEKTISKAKGQPREPQVYTLPPSREEMTKNQVSLTCLVKGFYPSDIAVEWESNGQPENNYKTTPPVLDSDGSFFLYSKLTVDKSRWQQGNVFSCSVMHEALHNHYTQKSLSLSPG
light: EIVLTQSPATLSVSPGERATLSCRTSQSVRSNLAWYQQKPGQAPRLLIYAASTRATGIPARFSGSGSGTEFTLTISSLQSEDFAVYYCQQYTNWPFTFGPGTKVDIKRTVAAPSVFIFPPSDEQLKSGTASVVCLLNNFYPREAKVQWKVDNALQSGNSQESVTEQDSKDSTYSLSSTLTLSKADYEKHKVYACEVTHQGLSSPVTKSFNRGEC
- average binding rate (average of the three slopes of the linear part of the curve): 28958±766
- internalization intensity (compared to humab2-3 and hmn-14): higher internalization intensity
- Slope of Curve (linear part (700 to 1200 minutes) of fluorescence intensity per cell, 100 nM pHrodo labeled antibody, single wells, listed as so8G4): 28519 and 29844 and 28513

“And” between values parts separate entries of the source, which are not always exact repeats. Equal entries are not always repeated.
